In all, about 150,000 compounds went through this assay and about 540 (0.36%) showed an effect of 50% or more. Some of the results follow.
What follows are compounds tested on Plasmodium falciparum (assay: Primary screen in NF54 nanoGlo assay, in single point, at 2uM, 72h; a lower Z score goes with more inhibition). Conditions: timepoint 72 hour.
Assay type: functional, Erythrocyte

Row | Structure (SMILES) | % Inhibition [%] | Z score
1 | COc1cc(NC(=O)CN2C(=O)CCn3nc(-c4cccn4C)cc32)cc(OC)c1OC | -4 | 0.77
2 | COCCN1CC[C@@]2(CCC1=O)CN(CCc1cccc(F)c1)CCN2C | -4 | 0.74
3 | N#Cc1cccc(C(=O)N2CCN(Cc3c[nH]cn3)C[C@H](O)C2)c1 | -8 | 1.4
4 | O=C(c1cc(=O)c(OCc2ccccc2Cl)c[nH]1)N1CCOCC1 | 7 | -0.85
5 | CCCCOC1CC(N(C)CC(=O)O)C1(C)C (stereo unspecified) | 2 | -0.26
6 | Cc1ccccc1C(=O)N1CCC[C@H](Oc2ccncc2Cl)C1 | 2 | -0.28
7 | COc1ccc2c(C)c(C(=O)N3CCNC(=O)[C@@H]3Cc3ccccc3)oc2c1 | -3 | 0.54
8 | CC(=O)N1CC(C(=O)NCc2ccc(-c3ccccc3)c(C)c2)C1 | -5 | 0.67
9 | C[C@H](O)CNc1cc(N2Cc3cccc(Cl)c3C2)ncn1 | -10 | 1.38
10 | COCC(=O)OCc1csc(NC(C)=O)n1 | -3 | 0.5
11 | COCCN1C[C@@H](C(=O)N2Cc3cnc(C)cc3C2)CCC1=O | -3 | 0.35
12 | CCc1nn(-c2ccc(OC)cc2)c(Oc2ccc(F)cc2F)c1CN(C[C@H]1CCCO1)C(=O)NC(C)C | -13 | 2.05
13 | Cc1oc(-c2ccn[nH]2)cc1S(=O)(=O)N(C)C[C@H]1CCCCN1C | -13 | 2.14
14 | O=C(Cn1cc(-c2ccccc2)c2ncnc(N3CCOCC3)c21)NCc1ccc(F)cc1 | 0 | -0.01
15 | Cc1ncoc1C(=O)N1CCC[C@H](C(=O)c2ccc(C(F)(F)F)cc2)C1 | -1 | 0.13
16 | COc1ccccc1C(c1c(O)c2ccccc2[nH]c1=O)c1c(O)c2ccccc2[nH]c1=O | -15 | 2.25
17 | O=C(Nc1ccc(N2CCOCC2)nc1)C1=Cc2ccccc2OC1 | -13 | 1.38
18 | C[C@H](Oc1ccccc1Cl)C(=O)N(Cc1ccccc1Cl)c1ccccn1 | -4 | 0.63
19 | O=C(Cn1c(=O)cnc2ccccc21)N1CCC2(CCO2)CC1 | -10 | 1.84
20 | COC(=O)c1ccc(N(C(=O)c2cc3ccccc3nc2C)C(C)C)c(C)c1 | -8 | 0.86
21 | CC1CCN(C(=O)CN(C)CCCn2ccnc2)CC1 | -6 | 0.98

Row | Structure (SMILES) | % Inhibition [%] | Z score
22 | Cc1cnc(C(=O)N2CCC[C@@H]2Cn2ccnc2)cc1C | 7 | -0.67
23 | CCc1ccc(NC(=O)Cn2c(=O)cnc3cc(C(=O)NC4CCCC4)ccc32)cc1 | -3 | 0.34
24 | CC(C)(C)NC(=O)c1ccc(F)c(F)c1 | 6 | -1.01
25 | CC[C@@H](C(=O)N1CCN(c2ccc(NC(=O)c3ccc(OC)cc3)cc2C(=O)NCc2ccc(F)cc2)CC1)c1ccccc1 | -15 | 1.28
26 | Cc1cnc(=O)n(Cc2ccccc2F)c1 | -7 | 0.82
27 | O=C(C(=O)N1CC[C@@]2(CCCN(CC3CCC3)C2=O)C1)c1ccco1 | -12 | 2.23
28 | C[C@@H](c1nc2ccccc2c(=O)[nH]1)N1CCC(C(=O)N2CCCCCC2)CC1 | 2 | -0.24
29 | O=c1[nH]nc2n1CC[C@@H](NS(=O)(=O)c1ccc3c(c1)CCCC3)CC2 | -17 | 2.63
30 | COc1ccc(C2(NCc3n[nH]cc3C)CCOCC2)cc1F | -1 | 0.28
31 | C[C@H](NC(=O)c1cncn1C)C(C)(F)F | -5 | 0.97
32 | O=C(CN1C(=O)CCC1=O)NC[C@@H](c1ccco1)n1cccn1 | 6 | -0.87
33 | Cc1nc(C(C)C)ccc1CN1C(=O)NC2(CCS(=O)(=O)CC2)C1=O | -12 | 1.27
34 | COc1ccc(S(=O)(=O)N2CCN(c3nc4cc(C)ccc4[nH]3)CC2)cc1 | -16 | 2.29
35 | CCN(CCCNC(=O)Nc1cccc(F)c1)S(C)(=O)=O | 5 | -0.58
36 | O=C(N[C@H]1CCc2ccccc21)c1cn[nH]c1-c1ccccc1 | -6 | 0.83
37 | Cc1ccc(C)c(NC(=O)CN2C(=O)CCn3nc(-c4cn(C)c5ccccc45)cc32)c1 | 5 | -0.89
38 | CC[C@H](C)N(CC(=O)N(CCOC)Cc1cccn1Cc1ccccc1)C(=O)c1ccco1 | -8 | 1.33
39 | Cc1ccc(C(=O)N2CCCn3nc(C#N)cc3C2)n1C(F)F | 4 | -0.53
40 | COc1cccc(C(=O)N(Cc2c(C(C)C)nn(-c3ccccc3)c2Oc2cccc(F)c2)C2CC2)c1 | 2 | -0.18
41 | COc1ccc(CN(Cc2ccccc2)[C@@H](C)c2ccccn2)nn1 | -9 | 1.45
42 | CN1CCN([C@H]2CCN(C(=O)c3ccc4cc[nH]c4c3)C[C@H]2CCCO)CC1 | 4 | -0.68

Row | Structure (SMILES) | % Inhibition [%] | Z score
43 | c1cc(-c2ncc(-c3ccncn3)s2)ccn1 | 6 | -0.91
44 | CCc1cn[nH]c1[C@H]1CCCN(c2ncc(C#N)c(N)n2)C1 | 13 | -1.75
45 | CC(=O)N(C)Cc1nc(C2(c3ccc(F)cc3)CCCCC2)no1 | -3 | 0.51
46 | CCn1ncc(C(=O)N2CCCC[C@H]2c2n[nH]c(C(C)C)n2)n1 | -10 | 1.41
47 | O=C(CCNC(=O)OCC(F)(F)F)NCC1(O)CCCCCC1 | 2 | -0.38
48 | CCOc1ccc(-n2ccn3c(C[C@@H](C)CC(=O)Nc4ccc(C)c(F)c4)nnc3c2=O)cc1 | -10 | 1.45
49 | Cn1ccnc1C(=O)N1C[C@@H]2CCC[C@@H](C2)C1 | -6 | 0.89
50 | COCc1cc(N2CCN(C3CC3)C(=O)C2)nc(C(C)(C)C)n1 | -25 | 3.43
51 | Cc1nc(-c2cnc(-c3cccnc3)nc2C)n([C@H]2CCS(=O)(=O)C2)n1 | -3 | 0.42
52 | CCn1cc(S(=O)(=O)NC2CN(C)CC2C)cn1 (stereo unspecified) | -4 | 0.81
53 | O=C(O)[C@H]1CCCN(C(=O)C2Cc3ccccc3C2)C1 | 10 | -1.76
54 | C[C@H]1CN(CC(=O)N2CCNC(=O)C2)c2ccccc21 | -4 | 0.5
55 | CC(C)n1nccc1-c1ccc(N(C)C)nc1 | -6 | 0.64
56 | Cc1cc(C)c(S(=O)(=O)N2CCN(C)[C@@]3(CCNC(=O)CC3)C2)c(C)c1 | -13 | 1.75
57 | CCN(CC)C(=O)N1CCCC1CC(O)c1ccco1 (stereo unspecified) | -13 | 1.12
58 | Cc1cc(Cl)ccc1NC(=O)CCc1c(C)nn(-c2cc(N(C)C)ncn2)c1C | -15 | 2.67
59 | O=C(NC[C@H]1CCOC1)c1ccc(Oc2ccc(F)cc2F)cc1 | -5 | 0.63
60 | Cc1ccc(C)c(NC(=O)c2c3c(nc4ccccc24)C(=O)N(C2CCCCC2)C3)c1 | -3 | 0.28
61 | Nc1c(C(=O)N2CCCC2)nsc1C(=O)NCc1ccc(F)cc1F | -5 | 1.07
62 | CCCN1CCN(C(=O)CCc2nc3ccccc3[nH]2)[C@H]2CS(=O)(=O)C[C@H]21 | 3 | -0.62
63 | CC(C)c1nnc(C2CCN(C(=O)c3cnc4ccccc4n3)CC2)o1 | 10 | -1.35

Row | Structure (SMILES) | % Inhibition [%] | Z score
64 | CCc1ccc([C@@H]2CN(Cc3ncnn3C)CCO2)cc1 | -6 | 0.76
65 | COCCN(C)S(=O)(=O)c1ccc(Cl)c(F)c1Cl | -12 | 1.59
66 | Cc1ccc(Cl)cc1S(=O)(=O)Nc1cnc2ccnn2c1 | 8 | -1.1
67 | CCN(Cc1noc(-c2ccccc2)n1)[C@H]1CCS(=O)(=O)C1 | -8 | 1.58
68 | Cc1cc(C)cc(NCc2cn(-c3ccc(C(=O)O)s3)c3ccccc23)c1 | -12 | 1.55
69 | COc1cc(Cl)ccc1-c1nc(C)nc(N2CCCC2)c1N | 1 | -0.19
70 | Cc1ccc(C(=O)N[C@H]2CO[C@H]3[C@@H]2OC[C@@H]3n2nnnc2Oc2ccccc2)cc1 | -11 | 1.73
71 | Cn1ccnc1[C@@H](NC(=O)COc1ccc(Cl)cc1Cl)C1CC1 | -5 | 0.63
72 | Cc1ccn2c(NC(=O)c3csc(C(C)(C)C)n3)nnc2c1 | -3 | 0.65
73 | Nc1c(-c2ccccc2)nnc2c(-c3ccccc3)cnn12 | -8 | 1.1
74 | CCN1c2ccc(F)cc2C(=O)NC12CCN(C(=O)Cc1cccc(OC)c1)CC2 | -4 | 0.48
75 | CCC(NC(=O)NCc1ncccc1F)C1CCCO1 (stereo unspecified) | -6 | 1.05
76 | Cc1ccc(-c2nnc(CNCCc3[nH]nc4c3CCCC4)o2)n1C | 4 | -0.54
77 | CCN1C(=O)CC(CC(=O)N2CCC[C@H]2C(=O)OC)(c2cccc(C(F)(F)F)c2)C1=O (stereo partly specified) | 1 | -0.18
78 | CCNC(=O)N(CCN1CCOCC1)CC(=O)N1CCN(c2ccc(-c3ccc(OC)c(OC)c3)nn2)CC1 | -12 | 1.44
79 | COc1nccc(NC(=O)N2CCOC(C(C)O)C2)n1 (stereo unspecified) | -8 | 1.22
80 | Cc1nc(CN2CCC(N3CCc4ccccc4C3)CC2)c[nH]1 | -8 | 1.58
81 | CC(C)CNC(=O)c1cc2c(OCc3ccccc3)cccc2n1CC(C)C | 6 | -0.76
82 | C=CCNC(=O)CN1CCOC(C)(C)C1 | 3 | -0.34
83 | Cc1noc(C)c1CC(=O)N[C@H](c1ccc(C2CCCCC2)cc1)C(C)C | -4 | 0.73
